Test results: the supplement of paper PMC8728848
The list shows a part of the results.

What was measured:
Assay in all cases: glycan array binding signal (z-score within array); higher = stronger binding
Details in all cases: glycan notation: IUPAC condensed, linker removed
[1] = biological target: Gal(a1-3)[Gal(a1-4)]Gal(b1-4)GlcNAc
Outline: (§1)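 The binding signal is a Z-score computed within each array. Data were drawn from 3228 arrays in the Consortium for Functional Glycomics database, restricted to those with a known protein sequence. Scores were averaged over arrays of the same protein sequence at different concentrations or buffers, and over linkers, and negative values can be taken as non-binding.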

[2] = biological target: Gal(a1-4)Gal(b1-3)GlcNAc(b1-2)Man(a1-3)[Gal(a1-4)Gal(b1-3)GlcNAc(b1-2)Man(a1-6)]Man(b1-4)GlcNAc(b1-4)GlcNAc
Outline: as §1

[3] = biological target: Gal(a1-4)Gal(b1-4)Glc
Outline: as §1

[4] = biological target: Gal(a1-4)Gal(b1-4)GlcNAc
Outline: as §1

[5] = biological target: Gal(a1-4)Gal(b1-4)GlcNAc(b1-2)Man(a1-3)[Gal(a1-4)Gal(b1-4)GlcNAc(b1-2)Man(a1-6)]Man(b1-4)GlcNAc(b1-4)GlcNAc
Outline: as §1

[6] = biological target: Gal(a1-4)Gal(b1-4)GlcNAc(b1-3)Gal(b1-4)Glc
Outline: as §1

[7] = biological target: Gal(a1-4)GlcNAc
Outline: as §1

[8] = biological target: Gal(a1-6)Glc
Outline: as §1

[9] = biological target: Gal(b1-2)Gal
Outline: as §1

[10] = biological target: Gal(b1-3)Gal
Outline: as §1

[11] = biological target: Gal(b1-3)Gal(b1-4)GlcNAc
Outline: as §1

[12] = biological target: Gal(b1-3)GalNAc
Outline: as §1

[13] = biological target: Gal(b1-3)GalNAc(a1-3)[Fuc(a1-2)]Gal(b1-4)Glc
Outline: as §1

[14] = biological target: Gal(b1-3)GalNAc(a1-3)[Fuc(a1-2)]Gal(b1-4)GlcNAc
Outline: as §1

[15] = biological target: Gal(b1-3)GalNAc(b1-3)Gal
Outline: as §1

[16] = biological target: Gal(b1-3)GalNAc(b1-3)Gal(a1-4)Gal(b1-4)Glc
Outline: as §1

[17] = biological target: Gal(b1-3)GalNAc(b1-4)Gal(b1-4)Glc
Outline: as §1

[18] = biological target: Gal(b1-3)GalNAc(b1-4)[Neu5Ac(a2-3)]Gal(b1-4)Glc
Outline: as §1

[19] = biological target: Gal(b1-3)GlcNAc
Outline: as §1

[20] = biological target: Gal(b1-3)GlcNAc(a1-3)Gal(b1-4)GlcNAc
Outline: as §1

[21] = biological target: Gal(b1-3)GlcNAc(a1-6)Gal(b1-4)GlcNAc
Outline: as §1

[22] = biological target: Gal(b1-3)GlcNAc(b1-2)Man
Outline: as §1

[23] = biological target: Gal(b1-3)GlcNAc(b1-2)Man(a1-3)[Gal(b1-3)GlcNAc(b1-2)Man(a1-6)]Man(b1-4)GlcNAc(b1-4)GlcNAc
Outline: as §1

[24] = biological target: Gal(b1-3)GlcNAc(b1-2)Man(a1-3)[Gal(b1-3)GlcNAc(b1-2)Man(a1-6)]Man(b1-4)GlcNAc(b1-4)[Fuc(a1-6)]GlcNAc
Outline: as §1

[25] = biological target: Gal(b1-3)GlcNAc(b1-2)Man(a1-3)[GlcNAc(b1-4)][Gal(b1-3)GlcNAc(b1-2)Man(a1-6)]Man(b1-4)GlcNAc(b1-4)GlcNAc
Outline: as §1

[26] = biological target: Gal(b1-3)GlcNAc(b1-2)[Gal(b1-3)GlcNAc(b1-6)]Man(a1-6)[Gal(b1-3)GlcNAc(b1-2)Man(a1-3)]Man(b1-4)GlcNAc(b1-4)GlcNAc
Outline: as §1

[27] = biological target: Gal(b1-3)GlcNAc(b1-3)Gal(b1-3)GlcNAc
Outline: as §1

[28] = biological target: Gal(b1-3)GlcNAc(b1-3)Gal(b1-4)Glc
Outline: as §1

[29] = biological target: Gal(b1-3)GlcNAc(b1-3)Gal(b1-4)GlcNAc
Outline: as §1

[30] = biological target: Gal(b1-3)GlcNAc(b1-3)Gal(b1-4)GlcNAc(b1-2)Man(a1-3)[Gal(b1-3)GlcNAc(b1-3)Gal(b1-4)GlcNAc(b1-2)Man(a1-6)]Man(b1-4)GlcNAc(b1-4)GlcNAc
Outline: as §1

[31] = biological target: Gal(b1-3)GlcNAc(b1-3)Gal(b1-4)GlcNAc(b1-2)[Gal(b1-3)GlcNAc(b1-3)Gal(b1-4)GlcNAc(b1-6)]Man(a1-6)[Gal(b1-3)GlcNAc(b1-3)Gal(b1-4)GlcNAc(b1-2)Man(a1-3)]Man(b1-4)GlcNAc(b1-4)[Fuc(a1-6)]GlcNAc
Outline: as §1

[32] = biological target: Gal(b1-3)GlcNAc(b1-3)Gal(b1-4)GlcNAc(b1-3)Gal(b1-4)GlcNAc(b1-2)[Gal(b1-3)GlcNAc(b1-3)Gal(b1-4)GlcNAc(b1-3)Gal(b1-4)GlcNAc(b1-6)]Man(a1-6)[Gal(b1-3)GlcNAc(b1-3)Gal(b1-4)GlcNAc(b1-3)Gal(b1-4)GlcNAc(b1-2)Man(a1-3)]Man(b1-4)GlcNAc(b1-4)[Fuc(a1-6)]GlcNAc
Outline: as §1

[33] = biological target: Gal(b1-3)GlcNAc(b1-3)Gal(b1-4)GlcNAc(b1-6)[Gal(b1-3)GlcNAc(b1-3)]Gal(b1-4)Glc
Outline: as §1

[34] = biological target: Gal(b1-3)GlcNAc(b1-3)Gal(b1-4)[Fuc(a1-3)]GlcNAc
Outline: as §1

[35] = biological target: Gal(b1-3)GlcNAc(b1-3)Gal(b1-4)[Fuc(a1-3)]GlcNAc(b1-6)[Gal(b1-3)GlcNAc(b1-3)]Gal(b1-4)Glc
Outline: as §1

[36] = biological target: Gal(b1-3)GlcNAc(b1-3)GalNAc
Outline: as §1

[37] = biological target: Gal(b1-3)GlcNAc(b1-6)Gal(b1-4)GlcNAc
Outline: as §1

[38] = biological target: Gal(b1-3)GlcNAc(b1-6)GalNAc
Outline: as §1

B1: Cohesin-hLangerin (Homo sapiens) (protein)
chain: LDDLDAVRIKVDTVNAKPGDTVRIPVRFSGIPSKGIANCDFVYSYDPNVLEIIEIEPGDIIVDPNPDKSFDTAVYPDRKIIVFLFAEDSGTGAYAITKDGVFATIVAKVKEGAPNGLSVIKFVEVGGFANNDLVEQKTQFFDGGANVGDTTEPATPTTPVTTPTTTDDLDAASYPRFMGTISDVKTNVQLLKGRVDNISTLDSEIKKNSDGMEAAGVQIQMVNESLGYVRSQFLKLKTSVEKANAQIQILTRSWEEVSTLNAQIPELKSDLEKASALNTKIRALQGSLENMSKLLKRQNDILQVVSQGWKYFKGNFYYFSLIPKTWYSAEQFCVSRNSHLTSVTSESEQEFLYKTAGGLIYWIGLTKAGMEGDWSWVDDTPFNKVQSARFWIPGEPNNAGNNEHCGNIKAPSLQAWNDAPCDKTFLFICKRPYVPSEPHHHHHH
glycan array binding signal (z-score) [1]: -0.426
glycan array binding signal (z-score) [2]: 0.877
glycan array binding signal (z-score) [3]: -0.278
glycan array binding signal (z-score) [4]: -0.301
glycan array binding signal (z-score) [5]: -0.368
glycan array binding signal (z-score) [6]: -0.399
glycan array binding signal (z-score) [7]: -0.3
glycan array binding signal (z-score) [8]: -0.349
glycan array binding signal (z-score) [9]: 0.175
glycan array binding signal (z-score) [10]: -0.229
glycan array binding signal (z-score) [11]: -0.346
glycan array binding signal (z-score) [12]: -0.328
glycan array binding signal (z-score) [13]: -0.311
glycan array binding signal (z-score) [14]: -0.363
glycan array binding signal (z-score) [15]: -0.24
glycan array binding signal (z-score) [16]: -0.332
glycan array binding signal (z-score) [17]: -0.402
glycan array binding signal (z-score) [18]: -0.292
glycan array binding signal (z-score) [19]: -0.322
glycan array binding signal (z-score) [20]: -0.425
glycan array binding signal (z-score) [21]: -0.39
glycan array binding signal (z-score) [22]: -0.114
glycan array binding signal (z-score) [23]: 0.179
glycan array binding signal (z-score) [24]: 0.003
glycan array binding signal (z-score) [25]: 4.37
glycan array binding signal (z-score) [26]: 4.81
glycan array binding signal (z-score) [27]: -0.372
glycan array binding signal (z-score) [28]: -0.373
glycan array binding signal (z-score) [29]: -0.406
glycan array binding signal (z-score) [30]: 1.62
glycan array binding signal (z-score) [31]: 3.71
glycan array binding signal (z-score) [32]: 5.37
glycan array binding signal (z-score) [33]: -0.418
glycan array binding signal (z-score) [34]: -0.366
glycan array binding signal (z-score) [35]: -0.447
glycan array binding signal (z-score) [36]: -0.379
glycan array binding signal (z-score) [37]: -0.363
glycan array binding signal (z-score) [38]: -0.23
